# This is one part of the list. These are further read-outs of the screen, such as a control signal, another cell line or another target. No call is given for them. The list favours compounds with an active or inconclusive main result.
# Biological target: Sphingosine 1-phosphate receptor 3 (Homo sapiens) (UniProt Q99500)
# Assay: human S1P3 receptor agonists, primary screen, cell-based, primary and confirmation, NFAT-BLA reporter (AID 373)
# Conditions: S1P3 NFAT-BLA reporter cells, agonism, FRET ratio; measured here: confirmation screen, triplicate average; at 4.5 µM; stronger effect = higher value; relative to 1 µM S1P, basal subtracted
# Method in brief: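 material = human S1P3 NFAT-BLA reporter CHO cells | schedule = 4 h compound at 37 °C, 2 h substrate at RT | measured by = fluorescent BLA substrate, ex 405 nm, em 460/535 nm ratio | controls = 1 µM S1P reference | replication = primary once, confirmation triplicate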
# UniProt Q99500, sequence (Q99500 whole entry, looked up): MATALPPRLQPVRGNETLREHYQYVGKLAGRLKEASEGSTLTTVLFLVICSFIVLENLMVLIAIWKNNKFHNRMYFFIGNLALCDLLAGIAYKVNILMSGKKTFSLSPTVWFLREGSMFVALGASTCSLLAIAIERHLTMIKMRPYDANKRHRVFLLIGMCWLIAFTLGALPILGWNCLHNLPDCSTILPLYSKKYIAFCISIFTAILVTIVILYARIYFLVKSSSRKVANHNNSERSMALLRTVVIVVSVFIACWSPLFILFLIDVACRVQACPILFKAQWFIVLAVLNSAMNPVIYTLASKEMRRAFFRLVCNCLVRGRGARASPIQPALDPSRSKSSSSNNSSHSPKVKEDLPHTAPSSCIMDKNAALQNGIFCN
row,SMILES,activation [%]
1,O=C(NCc1ccco1)c1cc2ccc(O)cc2oc1=O,11.3
2,Cc1ccc(-c2cc(-c3ccc(Cl)cc3)c(C#N)c(N)n2)o1,7.8
3,Cc1cc(C)n(-c2nc(NCCO)c3c4c(sc3n2)CCCC4)n1,39.7
4,Cc1cc(C)n(-c2nc(NCC(C)O)c3c4c(sc3n2)CCCC4)n1 (stereo not given),37
5,C=CCn1c(=O)c(C#N)cc2c(=O)n3ccccc3nc21,5.1
6,CC(C)n1c(=N)c(C(=O)NCCc2ccccc2)cc2c(=O)n3ccccc3nc21,10.8
7,CCCc1cc(C(=O)N(C2CCCCC2)C2CCCCC2)no1,46.1
8,COc1ccc(CCn2c(C)cc(C(=O)CSc3nnnn3C)c2C)cc1,9.6
9,CCCn1c(=O)c2ccccc2n2c(SCc3c(C(=O)OCC)oc4ccccc34)nnc12,13.8
10,Nc1c(C(=O)NCc2ccc3c(c2)OCO3)c2nc3ccccc3nc2n1CCCN1CCOCC1,15.7
11,Cc1ccc(C(C)C)c(OCc2nc(-c3nonc3N)no2)c1,11.4
12,c1ccc(-c2nc3nonc3nc2-c2ccccc2)cc1,5.7
13,N#CCSc1nnc(-c2ccccc2)c(-c2ccccc2)n1,4.5
14,CCCSc1nc(N2CCOCC2)c2c(c1C#N)CCCC2,11.1
15,O=C(NC1=NCCS1)c1cc(-c2ccccc2)nn1-c1ccccc1,4.6
16,OCCN1CCN(c2nc(-c3ccccc3)c3cc(Cl)ccc3n2)CC1,7.1
17,CCOc1ccc(-c2noc(-c3ccncc3)n2)cc1OCC,5.7
18,Cn1c(=O)c2c(-c3ccccc3)n(C3CCCCC3)cc2n(C)c1=O,5.4
19,CCOc1ccc(-c2nc(-c3ccccc3)no2)cc1OCC,10.3
20,Clc1ccc2nc(N3CCNCC3)nc(-c3ccccc3)c2c1,11
21,CCOC(=O)c1cc2ccc(OC(=O)c3ccco3)cc2oc1=O,28.4
22,Cc1cccn2c(=O)c3cc(C(=O)NC(C)c4ccccc4)c(=N)n(CCCn4ccnc4)c3nc12 (stereo not given),7.7
23,CCCCn1c(NC(=O)c2ccc(F)cc2)c(C#N)c2nc3ccccc3nc21,5.9
24,CC(Oc1ccccc1Br)C(=O)N1CCc2ccccc21 (stereo not given),10.7
25,O=c1c2ccccc2nnn1CSc1nnc(C2COc3ccccc3O2)n1-c1ccccc1 (stereo not given),5.7

row,SMILES,activation [%]
1,Cc1ccc(NC(=O)CC2Nc3ccccc3NC2=O)cc1Cl (stereo not given),9.2
2,O=C(Oc1ccc(-c2nnco2)cc1)N(c1ccccc1)c1ccccc1,16.7
3,c1ccc(C(Cc2nc(-c3ccncc3)no2)c2ccccc2)cc1,35.1
4,c1ccc(C(Cc2nc(-c3ccccn3)no2)c2ccccc2)cc1,7.5
5,Nc1c(C(=O)NCCN2CCOCC2)c2nc3ccccc3nc2n1CCc1ccccc1,4.6
6,COc1ccc(CCn2c(N)c(C(=O)NCc3ccco3)c3nc4ccccc4nc32)cc1OC,4.4
7,CCSc1nc(N2CCOCC2)c2c(c1C#N)CCCC2,4.6
8,c1ccc(-c2nnc(N3CCOCC3)nc2-c2ccccc2)cc1,30.5
9,CCCCC(=O)NC(Nc1nc(C2CC2)cs1)(C(=O)OCC)C(F)(F)F (stereo not given),6.5
10,CCOC(=O)C1=C(N)OC2=C(C(=O)CCC2)C1c1ccccc1OCC (stereo not given),15.1
11,Cc1ccc2nc3c(cc(C#N)c(=O)n3-c3nccs3)c(=O)n2c1,5.1
12,c1ccc(C(Cc2nc(-c3cccnc3)no2)c2ccccc2)cc1,16.3
13,COc1ccccc1Oc1cc(C#N)c(C#N)cc1-n1nnc2ccccc21,20.5
14,Cc1onc(-c2c(Cl)cccc2Cl)c1C(=O)N1CCc2ccccc21,8.2
15,CCOc1ccc(-c2nc(-c3ccncc3)no2)cc1OCC,19.4
16,C/C(Cl)=C/Cn1c(N2CCCC2)nc2c1c(=O)n(C)c(=O)n2C,6.9
17,COc1ccc(Nc2nc(Nc3ccc(OC)cc3)nc(-n3[nH]c(=O)c(C)c3C)n2)cc1,9.1
18,CCC(C)c1ccc2oc(-c3ccc(NC(=O)c4ncn[nH]4)cc3)nc2c1 (stereo not given),7.6
19,N=c1c(C(=O)NCc2ccco2)cc2c(=O)n3ccccc3nc2n1Cc1ccc(Cl)cc1,10
20,Cc1cccc2cc3c(NC(=O)c4ccccn4)nn(C)c3nc12,4.7
21,Cc1cc(C)n(-c2nc(NCc3cccnc3)c3c4c(sc3n2)COC(C)(C)C4)n1,15.6
22,Cc1cc(C)n(-c2nc(NCCCO)c3c4c(sc3n2)CCCC4)n1,46.8
23,Cc1cc(C)nc(-n2nc(C)c(Sc3ccc(F)cc3)c2N)n1,57
24,CC(=O)Oc1ccc2cc(-c3nc4ccccc4n3C)c(=O)oc2c1,6.3
25,Cc1cc(-n2c(=O)c(C#N)cc3c(=O)n4ccccc4nc32)no1,6.3

# Source: PubChem BioAssay AID373 (The Scripps Research Institute Molecular Screening Center, 2006)
